# Test results as given in publication PMC4742118.
# Protein sequences, listed by entry. Tags and fused reporters are not part of them. Residues count along the entry.
# UniProt P47746: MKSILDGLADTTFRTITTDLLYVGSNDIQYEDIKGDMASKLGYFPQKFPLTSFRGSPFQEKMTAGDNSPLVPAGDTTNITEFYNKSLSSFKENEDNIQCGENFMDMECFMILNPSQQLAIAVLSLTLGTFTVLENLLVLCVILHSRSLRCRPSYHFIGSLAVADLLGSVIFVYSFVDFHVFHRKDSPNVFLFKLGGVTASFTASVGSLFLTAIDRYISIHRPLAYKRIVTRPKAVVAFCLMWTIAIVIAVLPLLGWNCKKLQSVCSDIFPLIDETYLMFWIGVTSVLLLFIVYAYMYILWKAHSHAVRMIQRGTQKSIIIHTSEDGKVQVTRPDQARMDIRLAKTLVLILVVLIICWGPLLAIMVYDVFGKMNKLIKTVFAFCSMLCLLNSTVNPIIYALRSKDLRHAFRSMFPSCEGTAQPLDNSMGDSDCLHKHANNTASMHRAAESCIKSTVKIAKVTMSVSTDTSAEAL
# UniProt Q3UVX5, residues 19-1203: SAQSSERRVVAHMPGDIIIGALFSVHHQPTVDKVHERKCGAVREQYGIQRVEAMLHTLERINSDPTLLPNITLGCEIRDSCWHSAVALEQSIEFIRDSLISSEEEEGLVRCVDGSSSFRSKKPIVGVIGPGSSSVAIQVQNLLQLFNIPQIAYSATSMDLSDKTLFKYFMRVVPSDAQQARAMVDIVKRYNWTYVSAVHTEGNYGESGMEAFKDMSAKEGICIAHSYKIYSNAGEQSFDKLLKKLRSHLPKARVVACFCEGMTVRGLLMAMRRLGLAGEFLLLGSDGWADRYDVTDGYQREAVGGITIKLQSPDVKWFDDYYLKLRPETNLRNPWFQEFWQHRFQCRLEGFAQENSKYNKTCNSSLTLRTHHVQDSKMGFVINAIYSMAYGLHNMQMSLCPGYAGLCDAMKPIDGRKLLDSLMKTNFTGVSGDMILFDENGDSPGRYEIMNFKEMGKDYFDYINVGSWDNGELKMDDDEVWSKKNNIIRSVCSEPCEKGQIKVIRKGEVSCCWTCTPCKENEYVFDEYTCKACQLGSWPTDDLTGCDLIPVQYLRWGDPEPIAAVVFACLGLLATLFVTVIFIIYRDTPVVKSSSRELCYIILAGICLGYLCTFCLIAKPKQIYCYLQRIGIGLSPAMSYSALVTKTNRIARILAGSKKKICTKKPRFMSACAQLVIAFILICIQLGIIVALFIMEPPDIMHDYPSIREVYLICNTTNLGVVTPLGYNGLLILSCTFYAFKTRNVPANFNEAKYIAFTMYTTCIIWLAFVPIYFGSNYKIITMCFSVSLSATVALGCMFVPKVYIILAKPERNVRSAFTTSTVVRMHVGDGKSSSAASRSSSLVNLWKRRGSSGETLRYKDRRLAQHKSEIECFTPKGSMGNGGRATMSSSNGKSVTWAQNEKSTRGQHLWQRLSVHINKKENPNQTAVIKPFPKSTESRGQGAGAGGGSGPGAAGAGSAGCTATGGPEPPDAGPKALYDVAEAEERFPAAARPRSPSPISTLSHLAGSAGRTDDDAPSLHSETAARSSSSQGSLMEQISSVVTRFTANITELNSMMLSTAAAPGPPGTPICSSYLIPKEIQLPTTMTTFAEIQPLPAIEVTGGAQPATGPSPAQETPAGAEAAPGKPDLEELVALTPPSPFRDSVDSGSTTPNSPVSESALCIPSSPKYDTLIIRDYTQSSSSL
# UniProt Q14BI2, residues 19-872: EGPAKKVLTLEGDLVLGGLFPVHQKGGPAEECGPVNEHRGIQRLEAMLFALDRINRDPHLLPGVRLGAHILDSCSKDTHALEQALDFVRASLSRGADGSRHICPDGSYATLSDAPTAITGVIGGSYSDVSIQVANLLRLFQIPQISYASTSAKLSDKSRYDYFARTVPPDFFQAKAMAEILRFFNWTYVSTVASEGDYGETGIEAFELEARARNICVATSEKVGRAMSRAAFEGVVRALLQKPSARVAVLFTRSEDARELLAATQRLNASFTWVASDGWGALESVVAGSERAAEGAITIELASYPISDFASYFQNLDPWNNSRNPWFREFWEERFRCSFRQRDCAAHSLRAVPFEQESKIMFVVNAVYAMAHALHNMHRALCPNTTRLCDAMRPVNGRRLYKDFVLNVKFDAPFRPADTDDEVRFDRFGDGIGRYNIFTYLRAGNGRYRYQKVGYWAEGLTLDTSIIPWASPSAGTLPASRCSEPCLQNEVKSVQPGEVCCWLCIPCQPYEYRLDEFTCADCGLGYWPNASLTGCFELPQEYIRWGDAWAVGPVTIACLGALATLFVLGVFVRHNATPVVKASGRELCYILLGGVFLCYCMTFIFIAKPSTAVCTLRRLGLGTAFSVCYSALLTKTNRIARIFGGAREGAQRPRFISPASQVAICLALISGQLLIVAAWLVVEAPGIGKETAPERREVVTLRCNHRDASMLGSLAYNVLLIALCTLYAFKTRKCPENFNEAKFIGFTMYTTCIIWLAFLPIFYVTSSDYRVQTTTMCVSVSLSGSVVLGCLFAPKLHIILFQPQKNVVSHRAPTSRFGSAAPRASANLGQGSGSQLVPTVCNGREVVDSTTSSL
# UniProt P42866: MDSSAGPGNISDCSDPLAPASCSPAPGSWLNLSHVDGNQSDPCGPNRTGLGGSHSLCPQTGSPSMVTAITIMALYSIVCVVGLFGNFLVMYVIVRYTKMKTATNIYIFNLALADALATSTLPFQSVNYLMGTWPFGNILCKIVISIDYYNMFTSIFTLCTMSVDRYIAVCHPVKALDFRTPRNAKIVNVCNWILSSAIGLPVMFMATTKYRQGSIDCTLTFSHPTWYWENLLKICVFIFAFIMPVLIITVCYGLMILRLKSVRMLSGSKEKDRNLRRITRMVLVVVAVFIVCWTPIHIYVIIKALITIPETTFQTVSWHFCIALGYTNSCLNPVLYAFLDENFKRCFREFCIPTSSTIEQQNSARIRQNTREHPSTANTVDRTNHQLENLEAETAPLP
# UniProt P35363: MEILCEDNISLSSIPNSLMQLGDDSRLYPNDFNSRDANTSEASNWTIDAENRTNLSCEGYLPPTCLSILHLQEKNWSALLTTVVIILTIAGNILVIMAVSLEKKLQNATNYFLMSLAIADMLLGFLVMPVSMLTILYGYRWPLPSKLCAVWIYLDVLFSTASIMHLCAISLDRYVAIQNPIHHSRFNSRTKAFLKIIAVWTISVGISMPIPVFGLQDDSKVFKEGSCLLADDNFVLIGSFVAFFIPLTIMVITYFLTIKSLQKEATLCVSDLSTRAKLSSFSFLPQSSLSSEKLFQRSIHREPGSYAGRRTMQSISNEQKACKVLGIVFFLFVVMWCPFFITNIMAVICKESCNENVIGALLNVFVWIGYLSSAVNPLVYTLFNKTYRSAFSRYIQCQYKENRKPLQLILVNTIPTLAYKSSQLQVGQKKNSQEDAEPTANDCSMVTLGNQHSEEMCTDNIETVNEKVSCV
# UniProt Q61616: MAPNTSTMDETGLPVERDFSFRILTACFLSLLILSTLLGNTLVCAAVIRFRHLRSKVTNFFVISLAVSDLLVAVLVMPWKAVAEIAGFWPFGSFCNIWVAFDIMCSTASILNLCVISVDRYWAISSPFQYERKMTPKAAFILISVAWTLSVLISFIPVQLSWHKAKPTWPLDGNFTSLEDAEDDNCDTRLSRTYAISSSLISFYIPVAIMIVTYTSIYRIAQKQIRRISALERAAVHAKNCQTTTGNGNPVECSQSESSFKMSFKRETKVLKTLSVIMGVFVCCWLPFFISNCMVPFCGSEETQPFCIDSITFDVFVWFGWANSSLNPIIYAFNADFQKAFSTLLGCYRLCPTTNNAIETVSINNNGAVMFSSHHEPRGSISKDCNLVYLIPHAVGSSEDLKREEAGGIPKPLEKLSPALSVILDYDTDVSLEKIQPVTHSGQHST
# UniProt Q64264: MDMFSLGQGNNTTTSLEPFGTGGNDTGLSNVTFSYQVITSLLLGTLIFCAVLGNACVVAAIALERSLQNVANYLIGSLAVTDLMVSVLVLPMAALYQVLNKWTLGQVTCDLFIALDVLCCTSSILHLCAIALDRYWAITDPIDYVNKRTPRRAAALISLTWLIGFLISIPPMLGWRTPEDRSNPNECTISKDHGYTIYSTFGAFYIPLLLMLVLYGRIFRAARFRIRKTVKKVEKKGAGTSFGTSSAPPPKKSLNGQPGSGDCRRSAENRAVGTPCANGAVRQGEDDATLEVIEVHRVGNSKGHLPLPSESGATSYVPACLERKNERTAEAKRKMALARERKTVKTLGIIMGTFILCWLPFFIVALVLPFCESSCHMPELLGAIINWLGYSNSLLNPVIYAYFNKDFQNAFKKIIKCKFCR
# UniProt P61168: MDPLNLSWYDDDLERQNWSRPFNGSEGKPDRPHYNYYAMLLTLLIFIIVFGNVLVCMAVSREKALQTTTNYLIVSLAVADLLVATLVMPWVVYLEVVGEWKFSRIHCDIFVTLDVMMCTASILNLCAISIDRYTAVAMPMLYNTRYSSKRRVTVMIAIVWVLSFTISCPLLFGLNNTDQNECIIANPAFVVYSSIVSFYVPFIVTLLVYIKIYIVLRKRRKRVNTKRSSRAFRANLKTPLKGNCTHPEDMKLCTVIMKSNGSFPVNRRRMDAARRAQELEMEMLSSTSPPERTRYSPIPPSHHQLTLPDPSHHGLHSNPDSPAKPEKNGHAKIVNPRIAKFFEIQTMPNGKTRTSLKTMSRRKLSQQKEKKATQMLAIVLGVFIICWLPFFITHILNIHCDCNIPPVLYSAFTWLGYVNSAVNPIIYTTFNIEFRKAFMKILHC
# UniProt Q9Z0J4: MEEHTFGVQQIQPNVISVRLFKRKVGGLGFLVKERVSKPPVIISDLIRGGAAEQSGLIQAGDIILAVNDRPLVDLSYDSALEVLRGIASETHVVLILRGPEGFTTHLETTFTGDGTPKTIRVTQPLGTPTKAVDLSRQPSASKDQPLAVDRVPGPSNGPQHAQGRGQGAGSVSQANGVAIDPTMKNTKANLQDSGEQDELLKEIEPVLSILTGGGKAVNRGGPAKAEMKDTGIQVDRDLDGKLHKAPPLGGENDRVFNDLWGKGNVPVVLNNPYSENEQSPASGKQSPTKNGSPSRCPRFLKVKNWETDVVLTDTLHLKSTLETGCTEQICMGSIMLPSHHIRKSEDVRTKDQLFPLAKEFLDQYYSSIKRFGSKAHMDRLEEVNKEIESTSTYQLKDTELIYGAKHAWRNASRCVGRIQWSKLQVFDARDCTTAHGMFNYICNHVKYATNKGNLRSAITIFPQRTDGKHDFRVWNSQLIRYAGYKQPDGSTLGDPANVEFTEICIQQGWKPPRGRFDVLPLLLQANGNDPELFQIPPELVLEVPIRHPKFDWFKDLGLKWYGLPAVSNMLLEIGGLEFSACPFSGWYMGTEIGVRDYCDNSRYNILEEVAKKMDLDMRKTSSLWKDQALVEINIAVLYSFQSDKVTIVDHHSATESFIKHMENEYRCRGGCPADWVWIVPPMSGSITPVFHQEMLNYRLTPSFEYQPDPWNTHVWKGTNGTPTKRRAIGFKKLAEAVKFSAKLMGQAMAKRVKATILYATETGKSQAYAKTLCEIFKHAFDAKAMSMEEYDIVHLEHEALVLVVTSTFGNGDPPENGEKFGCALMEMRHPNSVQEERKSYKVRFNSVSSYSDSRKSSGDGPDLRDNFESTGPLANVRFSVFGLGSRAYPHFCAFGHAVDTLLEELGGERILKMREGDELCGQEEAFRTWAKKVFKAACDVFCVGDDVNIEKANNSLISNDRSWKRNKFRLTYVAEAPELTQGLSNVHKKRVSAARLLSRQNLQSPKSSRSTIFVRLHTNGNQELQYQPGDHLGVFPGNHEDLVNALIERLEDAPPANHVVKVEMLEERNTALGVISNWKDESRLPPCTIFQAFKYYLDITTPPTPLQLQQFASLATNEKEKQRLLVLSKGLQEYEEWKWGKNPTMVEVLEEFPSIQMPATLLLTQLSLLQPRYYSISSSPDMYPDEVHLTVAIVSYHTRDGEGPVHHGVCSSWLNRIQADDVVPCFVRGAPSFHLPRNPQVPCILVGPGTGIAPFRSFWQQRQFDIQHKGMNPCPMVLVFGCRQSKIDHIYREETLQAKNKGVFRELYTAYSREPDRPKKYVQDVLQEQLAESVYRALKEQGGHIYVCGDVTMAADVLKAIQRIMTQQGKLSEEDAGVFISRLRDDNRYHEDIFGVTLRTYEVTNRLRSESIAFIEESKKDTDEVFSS
# Results are given in words; binding and its absence hold for the method and conditions named. Binding seen in cells or lysates may run through a third protein. Some results given as binding are weak or reduced against the parent protein; the word gives no strength. For some assays here: Tags and fused reporters may be left off the sequences shown.
# Tests used:
# [1] = target: cannabinoid CB1 receptor, full length murine, BiFC fusion (murine) (UniProt P47746); assay: split reporter; BiFC in living CHO cells transiently co-transfected with the pair of full-length proteins in the VN173 and VC155 plasmids (0.3 ug); confocal fluorescence 24 h later
# [2] = target: metabotropic glutamate 5 receptor, full length murine, BiFC fusion (murine) (UniProt Q3UVX5); assay: as above
# [3] = target: metabotropic glutamate 2 receptor, full length murine, BiFC fusion (murine) (UniProt Q14BI2); assay: as above
# [4] = target: mu-opioid receptor (MOR), full length murine, BiFC fusion (murine) (UniProt P42866); assay: as above
# [5] = target: serotonin 2A receptor, full length murine, BiFC fusion (murine) (UniProt P35363); assay: as above
# [6] = target: dopamine D1 receptor, full length murine, BiFC fusion (murine) (UniProt Q61616); assay: as above
# [7] = target: serotonin 1A receptor, full length murine, BiFC fusion (murine) (UniProt Q64264); assay: as above
# [8] = target: dopamine D2 receptor, full length murine, BiFC fusion (murine) (UniProt P61168); assay: as above
# [9] = target: NMDAR NR1 C0-C1-C2 subunit, full length murine, BiFC fusion (murine) (UniProt P35438); assay: as above
# [10] = target: neural nitric oxide synthase (nNOS), full length murine, BiFC fusion (murine) (UniProt Q9Z0J4); assay: as above
# [11] = target: mu-opioid receptor (MOR), endogenous in mouse brain (mouse (endogenous in mouse brain synaptosomes)) (UniProt P42866); assay: co-IP; as a8, membranes from σ1R-/- mice; IP of MOR or NR1; Western blot
# [12] = target: cannabinoid CB1 receptor, endogenous in mouse brain (mouse (endogenous in mouse brain synaptosomes)) (UniProt P47746); assay: condition: only membranes heated at 100 °C for 10 min in 1% SDS before the immunoprecipitation; co-IP; selectivity control: synaptosomal membranes heated at 100 °C for 10 min in 40 mM Tris-HCl, 1% SDS, cooled, octylthioglucoside added to 0.65%, then immunoprecipitation
# [13] = target: NMDAR NR1 subunit, endogenous in mouse brain (mouse (endogenous in mouse brain synaptosomes)) (UniProt P35438); assay: as above
# [14] = target: mu-opioid receptor (MOR), endogenous in mouse brain (mouse (endogenous in mouse brain synaptosomes)) (UniProt P42866); assay: as above
# [15] = target: cannabinoid CB1 receptor, endogenous in mouse brain (mouse (endogenous in mouse brain synaptosomes)) (UniProt P47746); assay: co-IP; solubilised synaptosomal membranes of mouse brain (PAG); MOR, CB1 or NR1 precipitated with biotinylated IgG against extracellular domains; Western blot; wild-type and control mice, also after icv morphine, BD1047 with morphine, MK801, or CCI surgery
# [16] = target: NMDAR NR1 subunit, endogenous in mouse brain (mouse (endogenous in mouse brain synaptosomes)) (UniProt P35438); assay: as above
# [17] = target: mu-opioid receptor (MOR), endogenous in mouse brain (mouse (endogenous in mouse brain synaptosomes)) (UniProt P42866); assay: as above
binder,measurement,setting,value
"histidine triad nucleotide-binding protein 1 (HINT1), full length murine, BiFC fusion (protein, UniProt P70349 1-126) MADEIAKAQVAQPGGDTIFGKIIRKEIPAKIIFEDDRCLAFHDISPQAPTHFLVIPKKHISQISVADDDDESLLGHLMIVGKKCAADLGLKRGYRMVVNEGADGGQSVYHIHLHVLGGRQMNWPPG",binding,[1],binds
same,binding,[2],binds
same,binding,[3],binds
same,binding,[4],binds
same,binding,[5],binds
same,binding,[6],binds
same,binding,[7],binds
same,binding,[8],binds
same,binding,[9],binds
"regulator of G protein signaling of the Rz subfamily, RGSZ2, full length murine, BiFC fusion (protein, UniProt Q9QZB0 1-210) MRKRQQSQNEGTQAVSQAPGNQRPNNTCCFCWCCCCSCSCLTVRNEERGDSSGRSPHTTKMESIQVLEECQNPTADEVLSWSQNFDKMMKTPAGRNLFREFLRTEYSEENLLFWLACEDLKKEQNKKAVEEKARMIYEDYISILSPKEVSLDSRVREVINRSLLDPSPHMYEDAQLQIYTLMHRDSFPRFLNSQIYKAFVESTTSCTSES",binding,[10],binds
"HINT1 protein, endogenous in mouse brain (protein, UniProt P70349 1-126) MADEIAKAQVAQPGGDTIFGKIIRKEIPAKIIFEDDRCLAFHDISPQAPTHFLVIPKKHISQISVADDDDESLLGHLMIVGKKCAADLGLKRGYRMVVNEGADGGQSVYHIHLHVLGGRQMNWPPG",binding,[11],binds weakly
same,binding,[12],no binding
same,binding,[13],no binding
same,binding,[14],no binding
same,binding,[15],binds
same,binding,[16],binds
same,binding,[17],binds
